# PubChem BioAssay AID686979 (National Center for Advancing Translational Sciences (NCATS), 2013)
# In all, about 420,000 compounds went through this assay and about 50,000 (12%) were called active. Inconclusive results, whose numbers are uncertain, are shown with a selection of clear calls. Calls come from the whole dose curve; as a rule, active = well fitted inhibition curve with a large enough effect; inconclusive = small, poorly fitted or top-dose-only effect; inactive = flat fitted curve, though single readings scatter. Potencies of inconclusive entries are left out as doubtful fits.
# Experiment: qHTS for Inhibitors of human tyrosyl-DNA phosphodiesterase 1 (TDP1): qHTS in cells in presence of CPT; note: nearly all actives have a fitted effect of over 55% in size
# Conditions: chicken DT40 Tdp1-/-;hTDP1 cells + 20 nM CPT, ATP luminescence, 48 h; series mostly up to 46.2 µM
# Procedure, shortened: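 Chicken DT40 Tdp1-/- cells stably complemented with human TDP1 were seeded at 400 cells/well in medium containing 20 nM camptothecin, exposed to pin-transferred compounds, and grown at 37 °C for at least 48 hr. Viability was read as ATP luminescence.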
# Potency is the fitted concentration of half-maximal effect; tags give direction and shape of the fitted curve.
row,Structure (SMILES),Potency
1,CCn1c(SCC(=O)Nc2cc(OC)ccc2OC)nc2c(c1=O)SCC2,"inconclusive [inhibitor, single point]"
2,Cc1ccc(C2CCN(C(=O)Nc3ccc(Cl)cc3)C2)cc1 (configuration not stated),"inconclusive [inhibitor, single point]"
3,Fc1ccc(-n2c(Cn3nnc4ccccc43)n[nH]c2=S)cc1,inactive
4,CCOc1ccc(/C=C2/C(=O)N(c3ccc(OC)cc3)C(=S)N2CC(=O)OC)cc1OCC,"inconclusive [inhibitor, single point]"
5,CC(=O)Nc1cccc(C(=O)OC(C)C(=O)Nc2ccc(S(=O)(=O)N3CCCC3)cc2)c1 (configuration not stated),"inconclusive [inhibitor, single point]"
6,CC(O)CNCCCOc1cccc(Oc2ccccc2)c1 (configuration not stated),active: 16.4 µM
7,Cc1nc2sccn2c(=O)c1S(=O)(=O)Nc1ccc(N2CCOCC2)cc1,"inconclusive [inhibitor, single point]"
8,Cc1occc1C(=O)N/N=C/c1cccc2ccccc12,"inconclusive [inhibitor, single point]"
9,COc1cc(NC(=O)c2cccs2)c(C(=O)OCC(=O)c2cc(C)n(-c3ccccc3)c2C)cc1OC,"inconclusive [inhibitor, single point]"
10,CCN1CCCc2cc(CN(CCN3CCOCC3)C(=S)Nc3ccccc3OC)ccc21,"inconclusive [inhibitor, single point]"
11,Nc1nc(=S)ss1,active: 16.4 µM
12,COc1ccc(Oc2ncc3ncc(=O)n(Cc4cccc(OC)c4)c3n2)cc1,"inconclusive [inhibitor, single point]"
13,CC(=O)N(C(C)=O)c1ncnc2c1c(-c1ccc(Cl)cc1)nn2C(C)(C)C,"inconclusive [inhibitor, single point]"
14,COC(=O)CCC(C)C1CCC2C3C(O)C[C@@H]4CC(O)CC[C@@]4(C)C3CC(O)[C@]12C (some centres not stated),"inconclusive [inhibitor, single point]"
15,COc1cccc(OCc2cc(/C=N/n3cncn3)ccc2OC)c1,"inconclusive [inhibitor, single point]"
16,C=CCn1c(=O)/c(=C/c2cc(OC)c(OC)c(OC)c2)s/c1=C(/C#N)c1nc2ccccc2n1C,active: 23.1 µM
17,C=CCn1c(SCC2CCCCO2)nc2sc(CC)cc2c1=O (configuration not stated),"inconclusive [inhibitor, full curve, poor fit]"
18,CCOc1ccccc1OCC(=O)Nc1ccccc1C(=O)NC1CC1,"inconclusive [inhibitor, single point]"
19,S=C(NC1CCCCC1)NN1CCCCCC1,inactive
20,O=C(Nc1ccc(S(=O)(=O)NCc2ccccc2)cc1)c1ccccc1[N+](=O)[O-],"inconclusive [inhibitor, single point]"
21,Cc1ccc(OCc2nc(-c3ccc(C(=O)N4CCN(c5cccc(C(F)(F)F)c5)CC4)cc3)oc2C)cc1,active: 16.4 µM

row,Structure (SMILES),Potency
1,c1ccc2c(c1)nc(N1CCOCC1)c1c3ccccc3[nH]c21,"inconclusive [inhibitor, single point]"
2,COc1cccc(C(C)(O)c2nc(-c3cccc(NC(C)=O)c3)cs2)c1 (configuration not stated),"inconclusive [inhibitor, partial curve]"
3,C=CCN1C(c2ccccc2)=CS/C1=C(\C#N)c1nnc2n1CCCCC2,"inconclusive [inhibitor, single point]"
4,COc1ccc(Br)cc1CNC(C)c1ccccc1 (configuration not stated),"inconclusive [inhibitor, single point]"
5,CCOc1ccc2c(c1)sc1nc(=O)n(-c3ccc(Cl)c(Cl)c3)c(=O)n12,inactive
6,CC(NCC(O)COC1CCC(C(C)(C)C)CC1)c1ccccc1 (configuration not stated),"inconclusive [inhibitor, single point]"
7,COc1cccc(NC(=S)N2CCN(c3ccccn3)CC2)c1,"inconclusive [inhibitor, single point]"
8,O=C(CCCCC(=O)OC1CCCCC1)OC1CCCCC1,"inconclusive [inhibitor, single point]"
9,Cc1ccccc1N1CCN(S(=O)(=O)C[C@]23CCC(CC2NC(=O)[C@@H](N)CCS(C)(=O)=O)C3(C)C)CC1 (some centres not stated),inactive
10,Cc1cc2cc3c(=O)[nH]c(=O)nc-3n(CC(O)C(O)C(O)CO)c2cc1C (configuration not stated),"inconclusive [inhibitor, single point]"
11,Nc1nnc(SCC(=O)Nc2ccc(N3CCOCC3)cc2)s1,inactive
12,O=C(CCl)NC1(C(F)(F)F)C(=O)Nc2c1c(=O)[nH]c(=O)n2-c1ccccc1 (configuration not stated),inactive
13,CCOC(=O)c1c(C)nc2ccccc2c1-c1ccccc1,"inconclusive [inhibitor, single point]"
14,CSc1cccc(NC(=O)C2CCN(S(=O)(=O)c3ccc4c(c3)CCCN4C(=O)C3CCC3)CC2)c1,"inconclusive [inhibitor, single point]"
15,CC(C)NCC(O)(c1ccc(Cl)cc1)c1ccc(Cl)cc1,"inconclusive [inhibitor, single point]"
16,CCOc1ccc(CN(C)CC(=O)c2c(N)n(Cc3ccccc3)c(=O)n(CC)c2=O)cc1OC,"inconclusive [inhibitor, single point]"
17,COc1ccc(N(CC(C)C)S(=O)(=O)c2nnc(NC(=O)c3cccs3)s2)cc1,"inconclusive [inhibitor, single point]"
18,CCC(=O)NC(=S)Nc1ccc(-c2nc3ccc(C)cc3s2)cc1,active: 20.6 µM
19,CC(C)(C)S(=O)(=O)c1cnc(-c2ccccn2)nc1N,"inconclusive [inhibitor, single point]"
20,Cc1ccccc1-c1nc(CS(=O)(=O)CC(=O)NCCc2ccccc2)c(C)o1,"inconclusive [inhibitor, partial curve]"
21,O=C(Nc1nccs1)c1ccc(-c2ccc(F)c(Cl)c2)o1,"inconclusive [inhibitor, single point]"
